# Laboratory results: paper PMC4336329 (PLoS ONE, 2015)
# Hit rate of the full screen: of about 310,000 compounds, about 2,200 (0.71%) showed an effect of 50% or more. The effect is printed as a negative number. Some of the results follow.
# Biological target: human ether-à-go-go-related gene (hERG) potassium channel (human, UniProt Q12809)
# Assay: primary screen, population patch clamp on CHO cells stably expressing hERG
# Sequence of human ether-à-go-go-related gene (hERG) potassium channel (Q12809 whole entry, looked up): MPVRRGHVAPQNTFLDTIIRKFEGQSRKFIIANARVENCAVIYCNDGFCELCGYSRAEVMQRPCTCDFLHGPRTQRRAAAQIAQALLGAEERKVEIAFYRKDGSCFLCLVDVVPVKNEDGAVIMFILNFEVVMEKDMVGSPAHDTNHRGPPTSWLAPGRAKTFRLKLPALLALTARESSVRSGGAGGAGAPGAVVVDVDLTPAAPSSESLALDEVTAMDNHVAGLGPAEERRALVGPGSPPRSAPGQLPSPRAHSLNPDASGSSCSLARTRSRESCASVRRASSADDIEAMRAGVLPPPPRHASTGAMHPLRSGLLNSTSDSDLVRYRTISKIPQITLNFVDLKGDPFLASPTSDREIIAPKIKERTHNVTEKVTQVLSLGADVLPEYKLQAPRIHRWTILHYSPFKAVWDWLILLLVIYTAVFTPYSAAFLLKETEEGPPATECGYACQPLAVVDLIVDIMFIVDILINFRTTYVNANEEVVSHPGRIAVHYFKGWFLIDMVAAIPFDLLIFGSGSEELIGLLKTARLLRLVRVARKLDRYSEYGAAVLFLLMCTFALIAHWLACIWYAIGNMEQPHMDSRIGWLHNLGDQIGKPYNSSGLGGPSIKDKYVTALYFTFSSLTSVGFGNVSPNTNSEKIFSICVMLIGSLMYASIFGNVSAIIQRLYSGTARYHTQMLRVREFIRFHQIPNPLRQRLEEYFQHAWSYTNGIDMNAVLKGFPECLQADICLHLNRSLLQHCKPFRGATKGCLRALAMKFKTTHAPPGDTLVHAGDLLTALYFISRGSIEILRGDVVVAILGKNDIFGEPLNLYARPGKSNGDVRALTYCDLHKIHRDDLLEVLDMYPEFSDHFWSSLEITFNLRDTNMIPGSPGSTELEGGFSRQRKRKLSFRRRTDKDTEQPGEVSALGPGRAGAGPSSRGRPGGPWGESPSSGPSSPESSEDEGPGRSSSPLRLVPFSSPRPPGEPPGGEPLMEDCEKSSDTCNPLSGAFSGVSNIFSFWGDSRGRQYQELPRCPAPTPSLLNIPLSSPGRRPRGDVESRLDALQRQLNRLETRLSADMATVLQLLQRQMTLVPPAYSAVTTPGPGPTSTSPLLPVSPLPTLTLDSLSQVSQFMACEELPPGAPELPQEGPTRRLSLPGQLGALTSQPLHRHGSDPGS
row,SMILES,"hERG current change (%, negative = inhibition) at 1uM"
1,O=C(Nc1ccc(S(=O)(=O)N2CCCCC2)cc1)c1ccc(=O)[nH]c1,12.7%
2,CC(C)(C)[C@@H]1C=C(C(=O)O)O[C@H](OCCCCO)C1,14.1%
3,O=C(O)c1cc2cc(OCc3ccccc3)ccc2[nH]1,16.3%
4,COCCNC(=S)N1CCN(c2nc3ccccc3s2)CC1,3.61%
5,O=C(O)/C=C/c1ccc(S(=O)(=O)NCc2ccco2)cc1,7.02%
6,Cc1ccc(C(C)C)c(OCCNCc2ccccc2)c1.O=C(O)C(=O)O,22.1%
7,O=C(CCc1nnc2ccc(NCc3ccco3)nn12)Nc1ccccn1,12.1%
8,C=CCNC(=O)/C=C/c1ccc(C(C)C)cc1,4.66%
9,CCOC(=O)[C@@H]1[C@H]2COc3ccc(Br)cc3[C@@H]2N2C(=O)N(c3cccc(F)c3)C(=O)[C@@]12C,10.9%
10,CN(c1ccccc1C(=O)N1CCN(c2ccccc2F)CC1)S(=O)(=O)c1ccccc1,-3.29%
11,NC(=O)C1CCN(C(=O)NC2CC(=O)N(c3ccc4c(c3)OCCO4)C2)CC1 (stereo not drawn),6.84%
12,CCOc1ccc(C2=NNC(c3cccnc3)=Nc3ccc(OC)cc32)cc1,10.1%
13,Cc1c(NC(=O)Cn2ccc([N+](=O)[O-])n2)c(=O)n(-c2ccccc2)n1C,20.2%
14,S=c1[nH]nc(Cc2ccc(Br)cc2)n1/N=C/c1ccc(Cl)cc1,2.36%
15,COc1cc2c(cc1OC)C(c1cc3ccc(C)cc3[nH]c1=O)N(C(=O)c1ccco1)CC2 (stereo not drawn),4.19%
16,CC12CC3CC(C)(C1)CC(C(=O)NC1=NCCS1)(C3)C2,4.09%
17,COc1cc(C(C)=O)ccc1Oc1ncnc2c1cnn2-c1cccc(Cl)c1,7%
18,Cc1ccc(S(=O)(=O)N2CC=C(C(=O)NCc3ccc(F)cc3)CC2)cc1,0.952%
19,COC(=O)c1cccc(NC(=O)CC2C(=O)NCCN2C(=O)c2ccc(F)cc2F)c1 (stereo not drawn),10.5%
20,Cl.OCCN1CCN(CC(O)COc2ccc3ccccc3c2)CC1 (stereo not drawn),4.26%
21,CCOc1ccc(-c2nc(CCl)cs2)cc1.Cl,12.9%
22,NS(=O)(=O)c1ccc(NC(=O)CN2CCCc3ccccc32)cc1,10.3%
23,CC(=O)O.NC(N)=N/N=C/c1c(Cl)cccc1Cl,6.48%
24,CCN(CC)C(=O)Cn1cc(C(=O)C(=O)NCc2ccco2)c2ccccc21,5.23%
